Assay results as given in ChEMBL document CHEMBL1156829.
Over roughly 5,400 compounds, “IFI” has its median near 2; the highest 2% begin near 22. The list shows a part of the results.

Test: NOVARTIS: Inhibition Frequency Index (IFI) - the number of HTS assays where a compound showed > 50% inhibition/induction, expressed as a percentage of the number of assays in which the compound was tested.
Assay type: functional
Work on `C=C[C@H]1CN2CC[C@H]1C[C@@H]2[C@@H](OC(=O)c1ccc(OC)cc1)c1ccnc2ccccc12` yielded an IFI of 3%. In the case of `C=CC1(O)CN2CCC1CC2[C@@H](O)c1ccnc2ccc(OC)cc12` (some centres not stated), the IFI was 3.57%. Molecule `CCN(CC)S(=O)(=O)c1ccc(C(=O)c2c(C)c(C(=O)C(F)(F)F)c3ccccn23)cc1` has an IFI of 3.12%. With `C=CC1CN2CCC1CC2C(O)c1ccnc2ccccc12` (configuration not stated) the IFI was 0.781%. With `O=C(c1ccc([N+](=O)[O-])o1)N1CCN(c2cccc(Cl)c2)CC1` the IFI was 4.71%. With `CC(=O)N(C1=C(N(C)C)C(=O)c2ccccc2C1=O)c1ccc(F)c(F)c1` the IFI was 23.1%. In the case of `CC(=O)N(C1=C(N(C)C)C(=O)c2ccccc2C1=O)c1ccc(Cl)cc1`, the IFI was 0%. For `CCOc1ccc2nccc([C@@H](O)[C@@H]3C[C@@H]4CCN3C[C@@H]4CC)c2c1`, the IFI was 3.82%. Work on `CC[C@H]1CN2CCc3cc(OC)c(OC)cc3[C@@H]2C[C@@H]1C[C@@H]1NCCc2cc(OC)c(OC)cc21` yielded an IFI of 37%. `CN1CCc2cc3c(c4c2C1Cc1ccccc1-4)OCO3` (configuration not stated) showed an IFI of 6.17%. `C/C=C1/C[C@H]2[C@@H](OC)Nc3cc(O)c(OC)cc3C(=O)N2C1` showed an IFI of 28.6%. Work on `CC[C@H]1CN2CC[C@H]1C[C@H]2[C@H](O)c1ccnc2ccccc12` yielded an IFI of 5.17%. Molecule `CCSc1nc2sc3c(c2c(=O)n1-c1ccccc1)CCN(Cc1ccccc1)C3` has an IFI of 2.84%. `c1ccc2c(c1)ccc[n+]2CCCCCC[n+]1cccc2ccccc21` gave an IFI of 0%. `CC1CCC2C(C)C(=O)OC3OC(C)C4CC1C32OO4` (configuration not stated) gave an IFI of 7.14%. `CCN1CCC(N2CCC(n3c(Cc4ccccc4OC)nc4cc(F)ccc43)CC2)CC1` gave an IFI of 1.7%. Work on `COc1ccc(C(Cc2ccccc2)NC2CN3CCC2CC3)cc1` (configuration not stated) yielded an IFI of 0%. `CCC1CN2CCC1CC2C(O)c1ccnc2ccccc12` (configuration not stated) gave an IFI of 0%. With `COc1ccc(-c2ccc(C=C3C(=O)NC(=S)NC3=O)o2)cc1Cl` the IFI was 7.14%. With `CCN1CCN(c2c(Cl)cccc2NC(=O)C(Cl)(Cl)Cl)CC1` the IFI was 0%. `CC1=CC[C@@H](/C(C)=C/c2csc(C)n2)OC(=O)C[C@H](O)C(C)(C)C(=O)[C@H](C)[C@@H](O)[C@@H](C)CCC1` showed an IFI of 5.66%. In the case of `NC(=N[N+](=O)[O-])Nc1ccc(NC(=O)Nc2ccc(Cl)cc2)cc1`, the IFI was 2.86%. With `CN1CCN(c2nc(Cl)nc3[nH]cnc23)CC1` the IFI was 0.699%. In the case of `CCCCCCc1cc(O)c2c(c1)OC(C)(C)C1=C2CCN(C)C1`, the IFI was 5.77%. For `NC(=O)Oc1ccc(Cc2ccccc2)cc1`, the IFI was 0%. In the case of `Cc1ccn2c(NC(C)(C)CC(C)(C)C)c(-c3ccccc3OC(=O)N(C)C)nc2c1`, the IFI was 4.72%. Molecule `O[C@@]1(c2cc3ccccc3s2)CN2CCC1CC2` has an IFI of 1.63%. `C[C@H]1C[C@H](C)C(=O)[C@@H]([C@@H](O)CC2CC(=O)NC(=O)C2)C1` showed an IFI of 23.9%. In the case of `O=c1c2ccccc2nc(/C=C/c2ccc([N+](=O)[O-])o2)n1-c1ccc(Br)cc1`, the IFI was 0%. `NC(=O)Cc1ccccc1` gave an IFI of 2.04%. With `CCC1CC2CCC(O2)C(C)C(=O)OC(C)CC2CCC(O2)C(C)C(=O)OC(CC)CC2CCC(O2)C(C)C(=O)OC(C)CC2CCC(O2)C(C)C(=O)O1` (configuration not stated) the IFI was 24.1%. `c1ccc(C2=NN(c3ccccc3)N(c3ccccc3)N2)cc1` showed an IFI of 9.09%. For `CN(C)C(=O)O[n+]1ccc(N(C)C)cc1`, the IFI was 0%. `O=C1C=C(Nc2cccc(C(F)(F)F)c2)C(=O)c2ccccc21` gave an IFI of 7.04%. Molecule `COc1ccc2c(c1)CC1c3c(cc4c(c3-2)OCO4)CCN1C` (configuration not stated) has an IFI of 25%. In the case of `C=CC1CN2CCC1CC2[C@@H](OC(=O)c1ccc(C(C)(C)C)cc1)c1ccnc2ccc(OC)cc12` (some centres not stated), the IFI was 0%. Molecule `CCOC(=O)CN(N=O)C1=C(N2CC2)C(=O)c2ccccc2C1=O` has an IFI of 30.8%. In the case of `C=CC1CN2CCC1CC2[C@@H](OC(=O)c1cc([N+](=O)[O-])cc([N+](=O)[O-])c1)c1ccnc2ccc(OC)cc12` (some centres not stated), the IFI was 0%. Molecule `c1ccc(CCNC2CCN(Cc3ccccc3)CC2)cc1` has an IFI of 0%. In the case of `C=CC1CN2CCC1CC2[C@@H](OC(=O)/C=C/c1ccc(Cl)cc1)c1ccnc2ccc(OC)cc12` (some centres not stated), the IFI was 0%. Work on `COc1ccc(C=NNc2ccnc3cc(Cl)ccc23)cc1` yielded an IFI of 4.8%. For `CCOc1c(Cl)cc(CNC(C)C(O)c2ccccc2)cc1OC` (configuration not stated), the IFI was 0%.
